These results are taken from ChEMBL document CHEMBL4888484, “Replenishing the malaria drug discovery pipeline: Screening and hit evaluation of the MMV Hit Generation Library 1 (HGL1) against asexual blood stage Plasmodium falciparum ,using a nano luciferase reporter read-out” (2022).

In general, % Inhibition refers to the drop in the measured response relative to a control, in per cent.

The structures appear in SMILES notation. In all, about 150,000 compounds went through this assay and about 540 (0.36%) showed an effect of 50% or more. The list shows a part of the results.

The assay has as its system Plasmodium falciparum. The experiment in a line: Primary screen in NF54 nanoGlo assay, in single point, at 2uM, 72h; a lower Z score goes with more inhibition. The note with it: timepoint 72 hour. It is filed as functional, Erythrocyte.
Turning to `Cn1ccn2ncc(C(=O)NC[C@H]3CCN(Cc4ccco4)C3)c12`, the “% Inhibition” value is -9% and the Z score is 1.27.

For the molecule `CC[C@H](NC(=O)Cn1cccnc1=O)c1nccs1`, the “% Inhibition” value is listed as 3% and the Z score is given as -0.43.

For `CC(C)(NS(C)(=O)=O)C(=O)NC[C@H]1CC[C@H](c2ccccc2)O1`, the “% Inhibition” value is reported as -4% and the Z score is 0.58.

For the molecule `O=C(N[C@H]1CC(=O)N(Cc2cccc3ccccc23)C1)C1CCOCC1`, the “% Inhibition” value is recorded as -15% and the Z score amounted to 1.32.

For `O=C(O)[C@H]1CC[C@@H](C(=O)NC(Cc2ccccc2)c2ccccc2)C1` (some centres undefined), the “% Inhibition” value was 32% and the Z score was -3.63.

Turning to `CCCN1CCC(CC(=O)N[C@@H](C)[C@H](O)c2ccc(O)cc2)CC1`, the “% Inhibition” value is -9% and the Z score worked out at 1.55.

As for `Cc1cccc(CN(Cc2cccc(C)n2)c2ncc(Br)cn2)n1`, the “% Inhibition” value was 1% and the Z score was -0.08.

In the case of `CC(C)(CNC(=O)[C@@H]1COCCO1)c1ccc(F)cc1Cl`, the “% Inhibition” value is -7% and the Z score was 0.89.

As to `CCOC(=O)C(C)NC(=O)C1CCCC(C(=O)NC(C)C(=O)OCC)C1` (centres undefined), the “% Inhibition” value is -6% and the Z score was found to be 1.

As for `CC(C)c1nnsc1Cn1ccnc1-c1cc2n(n1)CCCNC2`, the “% Inhibition” value was 13% and the Z score is given as -1.77.

Regarding `NS(=O)(=O)c1ccc(NC(=O)N2CC(Oc3ccccc3)C2)cc1`, the “% Inhibition” value is -3% and the Z score was 0.4.

For `CC1CCC(NC(=O)Cn2ccnc2)CC1` (centres undefined), the “% Inhibition” value was determined as 0% and the Z score turned out to be 0.03.

With `O=C(CCc1cn(-c2ccccc2)nc1-c1ccc2c(c1)OCO2)NC[C@H]1CCCO1`, the “% Inhibition” value is reported as 0% and the Z score worked out at 0.04.

As to `CNC(=O)C1CN(C(=O)c2ccnc(-c3ccco3)c2)C1`, the “% Inhibition” value is 15% and the Z score is -1.74.

As to `OCCN(CCn1ccnc1)Cc1ccco1`, the “% Inhibition” value is reported as -8% and the Z score stood at 1.03.

In the case of `COCCn1ccc(NC(=O)N2CCC[C@](C)(c3ccccc3)C2)n1`, the “% Inhibition” value is -14% and the Z score was 1.79.

Take `CC(C)c1cc([C@@H]2CCCN2C(=O)NC2CCCC2)on1`: the “% Inhibition” value is on record as -9% and the Z score came out at 1.26.

For `Cc1ccc(C)c(N2CCN(C(=O)c3cc(C(=O)N4CCN(c5cc(C)ccc5C)CC4)cc(C(=O)N4CCN(c5cc(C)ccc5C)CC4)c3)CC2)c1`, the “% Inhibition” value is -31% and the Z score was 3.63.

Consider `CCOC(=O)C1CCN(Cc2ccccc2)CC1c1ccccc1` (centres undefined), for which the “% Inhibition” value is reported as -14% and the Z score was found to be 1.21.

Consider `Cc1ccc(Oc2nc3ccccc3n3c(=O)n(CC(=O)Nc4c(C)cccc4C)nc23)cc1`, for which the “% Inhibition” value was -4% and the Z score is recorded as 0.63.

Take `c1coc(-c2cc(-c3nc(-c4ccncc4)no3)n[nH]2)c1`: the “% Inhibition” value was -5% and the Z score is on record as 0.65.

As to `COc1ccc(C(=O)N2CCC[C@@]3(C2)NC(=O)N(Cc2ccc(C)cc2)C3=O)cc1OC`, the “% Inhibition” value is given as -13% and the Z score worked out at 2.28.

For `CNC(=O)C(NCCOC1CCCCO1)C(C)C` (centres undefined), the “% Inhibition” value was -11% and the Z score came out at 2.02.

With `CO[C@H]1C[C@H]2CC(NCc3ccc(Cn4ccnc4)cc3)C[C@H]2C1` (some centres undefined), the “% Inhibition” value is -7% and the Z score is listed as 0.66.

Consider `CN1CCOC2CN(Cc3ccc(Cl)c(F)c3)CC21` (centres undefined), for which the “% Inhibition” value is -10% and the Z score is 1.85.

`Cn1ncc(Cl)c1[C@@H]1CCCCCN1C(=O)c1ccccc1F`: the “% Inhibition” value was -19% and the Z score turned out to be 1.68.

On to `C[C@H](Nc1ccc2c(c1)OC1(CCCCC1)O2)C(=O)NC(N)=O`, for which the “% Inhibition” value is -2% and the Z score is 0.3.

With `CCN=C(NCc1ccon1)N[C@H]1CCN(c2ccc(F)cc2F)C1`, the “% Inhibition” value was -4% and the Z score is listed as 0.48.

For `Cc1ccc2[nH]c(-c3nc(CCN(C)C(=O)c4c(F)cccc4F)no3)cc2c1`, the “% Inhibition” value is -9% and the Z score was found to be 1.7.

Turning to `Cc1c(O)cccc1C(=O)N1CCn2nc(C(=O)N3CCN(C)CC3)cc2C1`, the “% Inhibition” value was determined as 0% and the Z score is on record as -0.05.

For `C[C@@]1(C(=O)Nc2ccc3c(c2)CCN3)CNCCO1`, the “% Inhibition” value is given as 16% and the Z score is given as -2.08.

`Cc1ccc(CCNC(=O)C2CCN(S(=O)(=O)c3ccc4nc5c(c(C(=O)O)c4c3)CCCC5)CC2)cc1`: the “% Inhibition” value was -14% and the Z score is 2.12.

As to `C[C@@H]1CN(C(=O)c2nnc3ccccc3n2)C(C)(C)C1`, the “% Inhibition” value is recorded as -19% and the Z score turned out to be 2.49.

As to `Cc1c(C(=O)NS(=O)(=O)C[C@H]2CCOC2)cccc1-c1ccccn1`, the “% Inhibition” value was -10% and the Z score turned out to be 1.6.

Turning to `OCc1cc(-c2ccccc2OCc2ccccc2)ccn1`, the “% Inhibition” value is -5% and the Z score is on record as 0.85.

On to `CC(C)c1ccoc1C(=O)N1CCc2nn[nH]c2C1`, for which the “% Inhibition” value is recorded as -14% and the Z score amounted to 1.66.

Regarding `Cc1cnc(C2CCN(Cc3cccn3C)CC2)n1[C@H](C)CO`, the “% Inhibition” value is -6% and the Z score is recorded as 1.08.

Take `O=C(NC1(c2cccc(Cl)c2)CCCC1)c1cn[nH]c1`: the “% Inhibition” value is -8% and the Z score came out at 1.37.

`CN1CCN(CC(=O)NCCc2ccc(F)cc2)C[C@]12CCNC(=O)CC2`: the “% Inhibition” value was 3% and the Z score is on record as -0.5.

For the molecule `Cc1c(CN2CCC[C@H]2C(F)(F)F)cnn1CCN1CCCOCC1`, the “% Inhibition” value came out at 0% and the Z score worked out at 0.01.

With `CC1(C)Cc2cc(S(=O)(=O)Nc3cn[nH]c3)ccc2O1`, the “% Inhibition” value is -5% and the Z score came to 0.81.

For `CC[C@@H](CN(C)C)NC(=O)c1coc(COc2ccc3c(c2)OCO3)n1`, the “% Inhibition” value was -3% and the Z score is 0.43.
